Assay results reported in PubChem BioAssay AID1159614 (National Center for Advancing Translational Sciences (NCATS), 2016).
The campaign covered roughly 45,000 compounds. About 65 (0.1%) were called active. Calls come from the whole dose curve; as a rule, active = well fitted activation curve with a large enough effect; inconclusive = small, poorly fitted or top-dose-only effect; inactive = no such curve, though single readings can be large or run the other way. The list shows a part of the results.

Target: Galactocerebrosidase (Homo sapiens) (UniProt P54803)
UniProt P54803, sequence (P54803 whole entry, looked up): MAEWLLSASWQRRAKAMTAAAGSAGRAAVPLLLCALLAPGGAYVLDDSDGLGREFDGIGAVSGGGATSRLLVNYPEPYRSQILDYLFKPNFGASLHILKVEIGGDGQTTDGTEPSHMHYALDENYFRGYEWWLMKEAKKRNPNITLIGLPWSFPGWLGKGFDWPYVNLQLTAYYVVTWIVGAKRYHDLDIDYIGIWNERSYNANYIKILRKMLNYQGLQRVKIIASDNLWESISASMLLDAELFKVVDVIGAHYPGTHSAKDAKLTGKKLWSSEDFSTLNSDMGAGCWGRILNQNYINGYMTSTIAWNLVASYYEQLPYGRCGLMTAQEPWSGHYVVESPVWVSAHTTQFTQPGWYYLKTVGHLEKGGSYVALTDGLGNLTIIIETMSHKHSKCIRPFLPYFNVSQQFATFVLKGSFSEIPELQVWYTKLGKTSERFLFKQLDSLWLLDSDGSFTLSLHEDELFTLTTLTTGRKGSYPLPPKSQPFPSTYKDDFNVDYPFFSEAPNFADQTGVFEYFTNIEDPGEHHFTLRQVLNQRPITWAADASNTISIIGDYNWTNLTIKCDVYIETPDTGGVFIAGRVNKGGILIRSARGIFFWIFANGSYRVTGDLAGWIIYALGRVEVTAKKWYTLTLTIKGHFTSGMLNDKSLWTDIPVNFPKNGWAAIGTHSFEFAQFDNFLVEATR
Assay: A Novel Cell-Based Assay to Identify Small Molecules for B -Galactocerebrosidase; note: 0% is about no effect; nearly all actives have a fitted effect of over 65% in size
Details: 145M-Twi-hGALC-G270D cells (Twitcher mouse brain line with human GALC G270D), HMU-beta-Gal fluorescence, 48 h; series mostly up to 57.5 µM; activation: at the top concentration
Outline: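 Fluorogenic HMU-b-Gal hydrolysis (0.1 mM final, pH 5.2 citrate-phosphate with 1 mg/mL sodium taurocholate; carbonate stop buffer) measures mutant GALC activity after compound treatment of live 145M-Twi Twitcher brain cells stably carrying human GALC-G270D, with wild-type GALC line alongside; activation sought.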

activation, inactive:
Cc1cc([N+](=O)[O-])ccc1NC(=O)CSc1nccn1C -1.84%
O=C(CSc1cn(CC(=O)N2CCOCC2)c2ccccc12)Nc1ccccc1C(F)(F)F -12.7%
COc1ccc(CNC(=O)c2cnc(N3CCCC3)nc2C)cc1 -0.767%
COc1ccc(S(=O)(=O)NCc2cccn2Cc2cccc(C)c2)cc1OC -11.9%
CCCCc1nn2c(=O)cc(COC(=O)c3ccccc3NC(=O)C3CCCCC3)nc2s1 -12.9%
CCOc1ccc(NC(=O)c2cc3c(=O)n4cccc(C)c4nc3s2)cc1 -17.1%
CCN(C(=O)CSc1nnc(C)n2c1cc1occc12)c1ccccc1 -10%
Cc1ccccc1C(=O)Nc1nc2c(s1)CC(C(C)(C)C)CC2 (stereo unspecified) -9.84%
COc1ccc2c(c1)c1c(c(=O)n(-c3cccc(Cl)c3)c(=O)n1C)n2C -6.44%
COc1ccc(-c2c(C)c3ccc(O)c(CN4CCN(C)CC4)c3oc2=O)cc1OC -9.31%
CCOC(=O)CSc1nc2c([nH]c3ccccc32)c(=O)n1-c1ccc(OCC)cc1 -13.3%
COc1ccc(CSc2nc3ccncc3n2Cc2nc(-c3ccc(OC)c(OC)c3)oc2C)cc1 -14.4%
Cc1cccc2sc(N(Cc3cccnc3)C(=O)C3CCCCC3)nc12 -12.9%
COc1ccc(S(=O)(=O)c2cn(CC(=O)Nc3ccccc3)c3ccc(Cl)cc3c2=O)cc1 -7.7%
O=C(Cn1cc(SCc2cccc(C(F)(F)F)c2)c2ccccc21)N1CCCCCC1 -15.2%
CN1C(=O)C2CCCCN2c2ccc(C(=O)NCc3ccccc3Br)cc21 (stereo unspecified) -18%
COc1cc(NC(=O)CCc2c(C)nc3c(c(C)nn3-c3ccccc3)c2C)cc(OC)c1OC -35.5%
COc1cccc2cc(-c3nc(-c4cccs4)no3)c(=O)oc12 -11.5%
O=C(CSc1nc2c([nH]c3ccccc32)c(=O)n1-c1ccc(F)cc1)N1CCCCCC1 -12.2%
COc1ccccc1CNC(=O)Nc1ccc2c(c1)N(C)C(=O)c1ccccc1S2 0.0212%
Clc1cccc(-c2noc3ncnc(NC4CCCCC4)c23)c1 -42.8%
COc1ccc(Br)cc1CNC(=O)CCC(=O)N1CCSc2ccccc21 -6.36%
O=C(Nc1ccc(Br)cc1)c1ccc(Br)c(S(=O)(=O)NCc2ccccc2)c1 11.2%
CCOc1ccc(CNC(=O)Cn2nc(C)c3sc4ccccc4c3c2=O)cc1 0.298%
CCOC(=O)c1c(C)c(C(=O)NCCc2ccc(OC)cc2)c(C)n1CC -6.92%
Cc1ccc(NS(=O)(=O)c2c(C(=O)N3CCCCCC3)c(C)n(C)c2C)cc1F -16.6%
COc1cccc(-c2cc(C(=O)NCCc3ccc(C)cc3)[nH]n2)c1 -13.1%
CC(=O)c1c(C)n(-c2cccc(C)c2)c2ccc(OC(=O)COc3ccccc3)cc12 -31.1%
CCN(Cc1ccccc1)C(=O)Nc1ccc2c(c1)N(C)C(=O)c1ccccc1S2 -21.7%
Cc1ccc(C(=O)Nc2ccc3c(c2)N(C)C(=O)c2ccccc2S3)cc1F -12.5%
COc1ccc(C)cc1NC(=O)CN1C(=O)CCc2cc(S(=O)(=O)N3CCOCC3)ccc21 -22.1%
Cc1ccc(N(C)S(=O)(=O)c2ccc3[nH]cc(C(=O)O)c(=O)c3c2)cc1C -0.685%
C=Cc1ccc(Cn2c(=O)n(-c3ccccc3C)c(=O)c3c4c(sc32)CN(C(C)=O)CC4)cc1 -26.2%
CCc1nn(CC(=O)Nc2c(C)cc(C)cc2C)c(=O)c2cc3sccc3n12 -19%
CC(=O)c1ccc(NC(=O)CSc2nc(-c3ccccc3F)nc3c2c(=O)n(C)c(=O)n3C)cc1 -7.96%
Cc1ccc(C(c2sc3nc(-c4ccco4)nn3c2O)N2CCCCC2)cc1 (stereo unspecified) 1.98%
Cc1ccc(NC(=O)C2CCN(c3nc4ccccc4[nH]3)CC2)cc1Cl -8.18%
O=C(NCc1cccs1)c1ccc(CSc2nc3ccncc3n2Cc2cccc(F)c2)cc1 -9.78%
CN1CCC(=C2c3ccccc3C=Cc3ccccc32)CC1 -13.6%
CCOC(=O)c1c(-c2ccc(C)cc2)csc1NC(=O)c1cc(=O)c2cc(C)c(C)cc2o1 2.17%
CC1Cc2cc(S(=O)(=O)NCc3ccc(F)cc3)ccc2N1C(=O)C1CCC1 (stereo unspecified) -0.643%
COc1ccc(C2c3c(oc4ccc(F)cc4c3=O)C(=O)N2Cc2ccc3c(c2)OCO3)cc1 (stereo unspecified) 7.58%
CCOc1ccc(C(CC(=O)O)N2Cc3ccccc3C2=O)cc1OC (stereo unspecified) -9.49%
Cc1ccc(N2CC(c3nc4ccccc4n3CCC3CCCCC3)CC2=O)cc1 (stereo unspecified) -12.4%
O=C(Nc1ccccc1Br)C1CCCN(S(=O)(=O)c2cccc3nsnc23)C1 (stereo unspecified) -3.41%
COc1cccc(N2CCN(S(=O)(=O)c3ccc4[nH]c5c(c4c3)CCCC5)CC2)c1 0.75%
O=C1CC(c2ccccc2)Cc2[nH]c(=O)c(C(=O)Nc3cccc(F)c3)cc21 (stereo unspecified) -12%
O=C(NCCS(=O)(=O)N1CCN(c2ccccc2)CC1)C(c1ccccc1)c1ccccc1 -15.5%
Cc1cccc(NC(=O)c2c(NC(=O)C(F)(F)F)sc3c2CCCCC3)c1 -16.4%
CCOC(=O)c1cccc(Nc2c3c(nc4ccccc24)CCC3)c1 -13.1%
N#C/C(=C\c1ccccc1)c1nc(-c2cc3cc(Br)ccc3oc2=O)cs1 -15.3%
COC(=O)c1ccccc1NC(=O)NCCc1c(C)nn(C)c1C 0.973%
CCc1ccc(CNCc2c(C(=O)O)n(Cc3cccc(F)c3)c3cc(OC)ccc23)cc1 -9.46%
Cc1cccc(N(C)C(=O)c2cc(S(=O)(=O)N3CCCC3)cn2C)c1 -10.5%
Cc1noc(C)c1S(=O)(=O)N1CCC(C(=O)N2CCN(c3ccccc3)CC2)CC1 -8.65%
CCOC(=O)c1oc2c(c1C)-c1nn(Cc3ccc(Cl)cc3)cc1CC2 1.39%
O=C(CSc1nc2c([nH]c3ccccc32)c(=O)n1-c1ccc(F)cc1)N1CCCCC1 -0.896%
CCc1ccc(OCC(=O)N(Cc2ccc(Cl)cc2)C2CCS(=O)(=O)C2)cc1 (stereo unspecified) 5.32%
COc1ccccc1NC(=O)Cn1nnc(C(=O)NCc2ccc3c(c2)OCO3)c1N 8.32%
Cn1c(NCCO)nc2c1c(=O)n(Cc1ccccc1Cl)c(=O)n2C -10.9%
CCC(C)NC(=O)Cn1c(=O)cc(-c2ccccc2)c2c(C)nn(C)c21 (stereo unspecified) -4.04%
Cc1c(C(=O)N(C)C)sc2c1c(=O)n(-c1ccc(Cl)c(Cl)c1)c(=O)n2CC(=O)Nc1cccc(C(F)(F)F)c1 -12.8%
COc1cccc(N2CCN(C(=O)c3c(C)oc4ncnc(N5CCOCC5)c34)CC2)c1 -8.8%
CCn1c(=O)n(CC)c2cc(N3CCCCC3)c(NC(=O)Nc3ccccc3Cl)cc21 -2.92%
CC(C)c1ccc(NC(=O)CN(C)S(=O)(=O)c2ccc3c(c2)c(=O)n(C)c(=O)n3C)cc1 7.33%
Cc1nnc(C(=O)NC(C)(C)c2nc(C(=O)NCc3ccc(F)cc3)c(O)c(=O)n2C)o1 -17.1%
COc1cccc(Oc2nc3c(c(=O)n(Cc4ccccc4F)c(=O)n3C)n2C)c1 -14.9%
COc1cc2[nH]c(=O)n(CCCCCC(=O)N3CCN(c4cccc(C(F)(F)F)c4)CC3)c(=O)c2cc1OC -5.84%
O=C(CCS(=O)(=O)c1cc(Br)cc2c1N(C(=O)C1CC1)CC2)Nc1ccc(Br)cc1F -12.4%
CCOC(=O)Cc1ccc(NC(=O)NCc2ccc3c(c2)CCN3C(=O)CC)cc1 -5.33%
Cc1ccc(NS(=O)(=O)c2cc(Br)cc3c2N(C(=O)C2CC2)CC3)cc1C -6.93%
CCCS(=O)(=O)c1c(Nc2ccccc2C)sc(C(=O)c2ccccc2)c1N -18.4%
COC(=O)c1ccc(Cn2nnc3sc4c(c3c2=O)CCC(C)C4)cc1 (stereo unspecified) -7.92%
CCOc1ccccc1CNC(=O)CCn1ccc2cc(S(=O)(=O)N3CCC(C)CC3)ccc21 -3.93%
COc1ccc(NC(=O)Cn2c(=O)oc3cc(S(=O)(=O)N4CCC(C)CC4)ccc32)c(OC)c1 -9.57%
CCc1ccccc1N(C)C(=O)Cn1cnc2sc(C)c(S(=O)(=O)N3CCN(c4ncccn4)CC3)c2c1=O -3.44%
CC(=O)N(Cc1cccnc1)c1nc2c(C)c(C)ccc2s1 1.43%
Cc1ccc(Cl)cc1NC(=O)C1CCC(CNS(=O)(=O)c2cccc3nsnc23)CC1 (stereo unspecified) -19.6%
O=Cc1ccc(O)c(O)c1O -11%
CCc1ccc2c(c1)NC(c1cccs1)=NC(c1ccc(F)cc1)=N2 -15.6%
COc1ccc2c(CNCCc3cccs3)c(C(=O)O)n(Cc3ccccc3)c2c1 -9.77%
O=C(CCCN1C(=O)C(c2ccccc2)Oc2cccnc21)Nc1ccc(Br)cc1F (stereo unspecified) -10.9%
O=C(NC1CCCc2ccccc21)c1ccc2c(c1)sc1nc(-c3ccc(F)cc3)cn12 (stereo unspecified) -12.5%
COc1ccc(-c2nc(SCC(=O)NCCc3ccc(OC)c(OC)c3)n[nH]2)cc1 -0.158%
CCOc1ccc(CCNC(=O)c2cc3c(=O)[nH]c4ccc(C)cc4c3s2)cc1OCC -13.4%
CCCCN(CC)CCNC(=O)c1cc2c(=O)oc3ccc(C)cc3c2s1 0.754%
CCn1c(=O)c2cc(C(=O)NCCc3cc(OC)ccc3OC)sc2c2ccccc21 -14.3%
CCc1ccc2oc(-c3ccc(NC(=O)c4ccc(OC)c(Br)c4)cc3)nc2c1 -4.43%
Cc1ccc(-n2c(C)nc3c(cnn3-c3ccccc3C)c2=O)cc1F -21.8%
O=C(NCc1cccc(F)c1)c1ccc(-n2cnc3cccnc32)cc1 -12.4%
Cc1cccc(Cn2cc(C(=O)Nc3ccc(F)c(C(F)(F)F)c3)ccc2=O)c1 -9.78%
Cc1cccc(C)c1OCC(=O)Nc1nc(-c2ccc(Br)cc2)ns1 -14.5%
Cc1cc(C)c(Cn2c3ccccc3c3cnn(CC(=O)N4CCCCCC4)c(=O)c32)c(C)c1 -10.3%
Cc1cccc(-n2c(-c3ccccc3)cn3c4c(=O)[nH]c(=O)n(C)c4nc23)c1 -9.61%
Cn1cc(S(=O)(=O)c2ccccc2)c(=O)c2cc(F)c(N3CCN(c4ccccc4)CC3)cc21 -9.14%
Cc1ccc(-c2cc(C(F)(F)F)n3nc(C(=O)Nc4ccc(Cl)c(C(F)(F)F)c4)cc3n2)cc1 -14.2%
